Measured values reported in the supplement of paper PMC8728848.
This is one part of the list.

Assays:
Test in all cases: glycan array binding signal (z-score within array); higher = stronger binding
Conditions in all cases: glycan notation: IUPAC condensed, linker removed
Fuc(a1-2)Gal = target: Fuc(a1-2)Gal
Method in brief: (§1)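 The binding signal is a Z-score computed within each array and averaged over linkers. Arrays of the same protein sequence at different concentrations or buffers were also averaged together. Data originate from 3228 arrays in the Consortium for Functional Glycomics database, kept only where the protein sequence was available.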

Fuc(a1-2)Gal(b1-3)GalNAc = target: Fuc(a1-2)Gal(b1-3)GalNAc
Method in brief: as §1

[1] = target: Fuc(a1-2)Gal(b1-3)GalNAc(a1-3)[Fuc(a1-2)]Gal(b1-4)Glc
Method in brief: as §1

[2] = target: Fuc(a1-2)Gal(b1-3)GalNAc(a1-3)[Fuc(a1-2)]Gal(b1-4)GlcNAc
Method in brief: as §1

[3] = target: Fuc(a1-2)Gal(b1-3)GalNAc(b1-3)Gal
Method in brief: as §1

[4] = target: Fuc(a1-2)Gal(b1-3)GalNAc(b1-3)Gal(a1-4)Gal(b1-4)Glc
Method in brief: as §1

[5] = target: Fuc(a1-2)Gal(b1-3)GalNAc(b1-4)[Neu5Ac(a2-3)]Gal(b1-4)Glc
Method in brief: as §1

Fuc(a1-2)Gal(b1-3)GlcNAc = target: Fuc(a1-2)Gal(b1-3)GlcNAc
Method in brief: as §1

[6] = target: Fuc(a1-2)Gal(b1-3)GlcNAc(b1-2)Man(a1-3)[Fuc(a1-2)Gal(b1-3)GlcNAc(b1-2)Man(a1-6)]Man(b1-4)GlcNAc(b1-4)GlcNAc
Method in brief: as §1

[7] = target: Fuc(a1-2)Gal(b1-3)GlcNAc(b1-2)Man(a1-3)[Fuc(a1-2)Gal(b1-3)GlcNAc(b1-2)Man(a1-6)]Man(b1-4)GlcNAc(b1-4)[Fuc(a1-6)]GlcNAc
Method in brief: as §1

[8] = target: Fuc(a1-2)Gal(b1-3)GlcNAc(b1-3)Gal(b1-4)Glc
Method in brief: as §1

[9] = target: Fuc(a1-2)Gal(b1-3)GlcNAc(b1-3)GalNAc
Method in brief: as §1

[10] = target: Fuc(a1-2)Gal(b1-3)GlcNAc(b1-3)[Fuc(a1-2)Gal(b1-3)GlcNAc(b1-6)]GalNAc
Method in brief: as §1

[11] = target: Fuc(a1-2)Gal(b1-3)GlcNAc(b1-3)[Gal(b1-4)GlcNAc(b1-6)]Gal(b1-4)Glc
Method in brief: as §1

[12] = target: Fuc(a1-2)Gal(b1-3)GlcNAc(b1-3)[Neu5Ac(a2-6)Gal(b1-4)GlcNAc(b1-6)]Gal(b1-4)Glc
Method in brief: as §1

[13] = target: Fuc(a1-2)Gal(b1-3)GlcNAc6S
Method in brief: as §1

[14] = target: Fuc(a1-2)Gal(b1-3)[Fuc(a1-4)]GlcNAc
Method in brief: as §1

[15] = target: Fuc(a1-2)Gal(b1-3)[Fuc(a1-4)]GlcNAc(b1-2)Man(a1-3)[Fuc(a1-2)Gal(b1-3)[Fuc(a1-4)]GlcNAc(b1-2)Man(a1-3)]Man(b1-4)GlcNAc(b1-4)GlcNAc
Method in brief: as §1

[16] = target: Fuc(a1-2)Gal(b1-3)[Fuc(a1-4)]GlcNAc(b1-2)Man(a1-3)[Fuc(a1-2)Gal(b1-3)[Fuc(a1-4)]GlcNAc(b1-2)Man(a1-6)]Man(b1-4)GlcNAc(b1-4)[Fuc(a1-6)]GlcNAc(b1-4)[Fuc(a1-6)]GlcNAc
Method in brief: as §1

[17] = target: Fuc(a1-2)Gal(b1-3)[Fuc(a1-4)]GlcNAc(b1-3)[Fuc(a1-3)[Gal(b1-4)]GlcNAc(b1-6)]Gal(b1-4)Glc
Method in brief: as §1

[18] = target: Fuc(a1-2)Gal(b1-3)[Fuc(a1-4)]GlcNAc(b1-3)[Gal(b1-4)GlcNAc(b1-6)]Gal(b1-4)Glc
Method in brief: as §1

Fuc(a1-2)Gal(b1-4)Glc = target: Fuc(a1-2)Gal(b1-4)Glc
Method in brief: as §1

Fuc(a1-2)Gal(b1-4)Glc6S = target: Fuc(a1-2)Gal(b1-4)Glc6S
Method in brief: as §1

Fuc(a1-2)Gal(b1-4)GlcNAc = target: Fuc(a1-2)Gal(b1-4)GlcNAc
Method in brief: as §1

[19] = target: Fuc(a1-2)Gal(b1-4)GlcNAc(b1-2)Man
Method in brief: as §1

[20] = target: Fuc(a1-2)Gal(b1-4)GlcNAc(b1-2)Man(a1-3)[Fuc(a1-2)Gal(b1-4)GlcNAc(b1-2)Man(a1-6)]Man(b1-4)GlcNAc(b1-4)GlcNAc
Method in brief: as §1

[21] = target: Fuc(a1-2)Gal(b1-4)GlcNAc(b1-2)Man(a1-3)[Fuc(a1-2)Gal(b1-4)GlcNAc(b1-2)Man(a1-6)]Man(b1-4)GlcNAc(b1-4)[Fuc(a1-6)]GlcNAc
Method in brief: as §1

[22] = target: Fuc(a1-2)Gal(b1-4)GlcNAc(b1-2)[Fuc(a1-2)Gal(b1-4)GlcNAc(b1-4)]Man(a1-3)[Fuc(a1-2)Gal(b1-4)GlcNAc(b1-2)Man(a1-6)]Man(b1-4)GlcNAc(b1-4)GlcNAc
Method in brief: as §1

[23] = target: Fuc(a1-2)Gal(b1-4)GlcNAc(b1-3)Gal(b1-4)GlcNAc
Method in brief: as §1

[24] = target: Fuc(a1-2)Gal(b1-4)GlcNAc(b1-3)Gal(b1-4)GlcNAc(b1-2)Man(a1-3)[Fuc(a1-2)Gal(b1-4)GlcNAc(b1-3)Gal(b1-4)GlcNAc(b1-2)Man(a1-6)]Man(b1-4)GlcNAc(b1-4)GlcNAc
Method in brief: as §1

B1: LngA (Escherichia coli) (protein)
chain: MLSVYNRTQKFKAEARKKIAKYHELRKQRGMSLLEVIIVLGIIGTIAAGVVILAQRAFDSRAVTDLVTNTNTVRVRMKDAYQRDGKYPDFVDPLSLTANTIKTDTSGIPAAQLVQLGKITPDEVRNNISGDFIAIGGALTSNGAQVKKGFAIELNGLSQEQCRSILGQVGNNWEYVAIGTSASGSYAMTATGVDMSVAASTTVLRSLGNNGQTTLTADKILSTCTAQVNSITLGSR
Fuc(a1-2)Gal
  glycan array binding signal (z-score): -0.265
Fuc(a1-2)Gal(b1-3)GalNAc
  glycan array binding signal (z-score): -0.471
[1]
  glycan array binding signal (z-score): -0.299
[2]
  glycan array binding signal (z-score): 0.087
[3]
  glycan array binding signal (z-score): 1.06
[4]
  glycan array binding signal (z-score): -0.303
[5]
  glycan array binding signal (z-score): -0.424
Fuc(a1-2)Gal(b1-3)GlcNAc
  glycan array binding signal (z-score): 0.542
[6]
  glycan array binding signal (z-score): 1.12
[7]
  glycan array binding signal (z-score): -0.231
[8]
  glycan array binding signal (z-score): -0.405
[9]
  glycan array binding signal (z-score): -0.307
[10]
  glycan array binding signal (z-score): 0.331
[11]
  glycan array binding signal (z-score): -0.442
[12]
  glycan array binding signal (z-score): -0.479
[13]
  glycan array binding signal (z-score): -0.063
[14]
  glycan array binding signal (z-score): -0.534
[15]
  glycan array binding signal (z-score): 1.11
[16]
  glycan array binding signal (z-score): -0.302
[17]
  glycan array binding signal (z-score): -0.544
[18]
  glycan array binding signal (z-score): -0.552
Fuc(a1-2)Gal(b1-4)Glc
  glycan array binding signal (z-score): -0.027
Fuc(a1-2)Gal(b1-4)Glc6S
  glycan array binding signal (z-score): -0.327
Fuc(a1-2)Gal(b1-4)GlcNAc
  glycan array binding signal (z-score): -0.177
[19]
  glycan array binding signal (z-score): 0.35
[20]
  glycan array binding signal (z-score): 0.242
[21]
  glycan array binding signal (z-score): 1.39
[22]
  glycan array binding signal (z-score): 0.383
[23]
  glycan array binding signal (z-score): -0.462
[24]
  glycan array binding signal (z-score): -0.248
